Measured values published in PMC4336329 (PLoS ONE, 2015).
Hit rate of the full screen: of about 310,000 compounds, about 2,200 (0.71%) showed an effect of 50% or more. Effects have a minus sign here. The list shows a part of the results.

The molecules below were run against human ether-à-go-go-related gene (hERG) potassium channel (human, UniProt Q12809) (assay: primary screen, population patch clamp on CHO cells stably expressing hERG).
Sequence of human ether-à-go-go-related gene (hERG) potassium channel (Q12809 whole entry, looked up): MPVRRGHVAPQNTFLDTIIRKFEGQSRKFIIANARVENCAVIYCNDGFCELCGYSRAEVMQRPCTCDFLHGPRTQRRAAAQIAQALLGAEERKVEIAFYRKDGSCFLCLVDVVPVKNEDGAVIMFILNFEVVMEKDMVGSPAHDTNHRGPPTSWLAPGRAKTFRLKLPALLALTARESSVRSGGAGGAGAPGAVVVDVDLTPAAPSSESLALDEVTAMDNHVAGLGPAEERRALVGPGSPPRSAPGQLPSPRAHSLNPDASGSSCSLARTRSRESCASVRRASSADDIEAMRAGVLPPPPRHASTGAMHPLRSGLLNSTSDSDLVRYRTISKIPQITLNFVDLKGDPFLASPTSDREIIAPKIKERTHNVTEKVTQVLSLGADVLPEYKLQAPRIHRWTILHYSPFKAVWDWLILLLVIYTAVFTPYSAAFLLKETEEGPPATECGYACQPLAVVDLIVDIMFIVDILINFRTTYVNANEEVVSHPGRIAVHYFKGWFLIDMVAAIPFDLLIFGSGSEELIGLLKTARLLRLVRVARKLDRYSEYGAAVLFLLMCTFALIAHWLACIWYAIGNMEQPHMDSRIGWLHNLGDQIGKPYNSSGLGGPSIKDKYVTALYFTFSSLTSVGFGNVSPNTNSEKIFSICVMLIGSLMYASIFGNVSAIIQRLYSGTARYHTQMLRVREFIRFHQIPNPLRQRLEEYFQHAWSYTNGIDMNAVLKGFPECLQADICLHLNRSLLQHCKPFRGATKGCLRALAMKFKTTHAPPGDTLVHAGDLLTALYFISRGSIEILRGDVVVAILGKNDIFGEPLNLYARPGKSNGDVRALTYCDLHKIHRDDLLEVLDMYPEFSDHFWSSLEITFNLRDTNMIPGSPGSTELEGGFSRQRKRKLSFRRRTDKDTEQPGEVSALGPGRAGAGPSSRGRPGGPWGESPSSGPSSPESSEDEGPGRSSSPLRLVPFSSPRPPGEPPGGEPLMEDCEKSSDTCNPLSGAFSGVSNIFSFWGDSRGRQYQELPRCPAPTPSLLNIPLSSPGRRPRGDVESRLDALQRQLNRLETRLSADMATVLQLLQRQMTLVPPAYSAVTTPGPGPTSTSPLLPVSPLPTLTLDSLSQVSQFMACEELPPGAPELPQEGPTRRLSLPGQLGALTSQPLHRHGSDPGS

SMILES | hERG current change (%, negative = inhibition) at 1uM [%]
COc1ccc2cc3cc(C(=O)N4CCN(C5CCCCC5)CC4)oc3nc2c1 | 13.4
Cc1ccccc1-n1ncc2c1CC(C)(C)CC2NC(=O)C1CCC1 (stereo not drawn) | 5.1
O=C(O)Cc1sc(Nc2cccc3ccccc23)nc1-c1ccc(Cl)cc1 | 19
Cc1cnc(C(=O)OCC(=O)NC2CCCCC2)cn1 | 8.33
Cc1nc2cc(NC(=O)NCc3ccccc3)ccc2o1 | 16.2
COc1cccc(CNCC(=O)Nc2ccc(N3CCOCC3)cc2)c1.O=C(O)C(=O)O | -0.489
Br.O=S1(=O)C[C@@H]2N=C(N/N=C/c3ccccc3)S[C@@H]2C1 | 15.5
CC(C)N1CCC(N2CCN(CCCc3ccccc3)CC2CCO)CC1 (stereo not drawn) | 10.1
O=C1c2cccc3cc([N+](=O)[O-])cc(c23)C(=O)N1CC1CCCO1 (stereo not drawn) | 3.98
CC(C)c1cc(-c2cc(-c3ccc(Cl)cc3)on2)nc(NCC2CC2)n1 | 11
Cc1cccc(C(=O)N/C(=C\c2ccco2)C(=O)N2CCCCCC2)c1 | 8.69
Cc1ccc([N+](=O)[O-])cc1S(=O)(=O)N(C(=O)c1ccncc1)c1ccc2oc3c(c2c1)CCCC3 | 10.9
COc1ccccc1C(=O)NC(=O)COC(=O)CCOc1ccc(C)cc1 | 13.7
O=C(COc1ccc(F)cc1)Nc1nnc(C2CCCCC2)s1 | 19.8
O=C(CSc1nc2ccccc2s1)Nc1ccc(C(=O)O)cc1 | 5.84
Cc1c(Cl)cccc1NC(=O)NC1CCCCC1 | 12.8
CCOCCc1c(O)nc(SCC)[nH]c1=O | 7.23
CCCCN(CCCC)c1ccc(C(=O)c2ccccc2C(=O)O)c(O)c1 | -50.5
CN(CC(=O)Nc1cc(S(=O)(=O)N2CCCC2)ccc1Cl)Cc1ccc2c(c1)OCO2 | 14.1
COc1cccc(-c2nc(-c3ccc4c(c3)NC(=O)CO4)cs2)c1 | -20.6
CCn1c(=O)cc(OCC(=O)Nc2cccc(C)n2)c2ccccc21 | -22.1
COCCn1cnc2c1c(=O)n(Cc1ccc(Br)cc1)c(=O)n2Cc1ccccc1 | 8.5
CCOC(=O)C1=NOC(Cn2cc(C#N)c(=O)n(C)c2=O)C1 (stereo not drawn) | 25.7

SMILES | hERG current change (%, negative = inhibition) at 1uM [%]
CC(COc1ccccc1)N(CCCl)Cc1ccccc1.Cl (stereo not drawn) | 7.86
O=C(Nc1cccc(Cl)c1)Nc1ccccc1C(=O)O | -2.47
CSc1ccccc1NC(=O)COc1ccccc1C | 11
CCCc1cc(N2CCCC(C(=O)Nc3ccc(OC)cc3OC)C2)n2ncnc2n1 (stereo not drawn) | -27.7
O=C(Cn1cncn1)N/N=C/c1cccnc1 | 15.6
CN1CCN(C(=O)c2cnn3c(C(F)(F)F)cc(-c4cccs4)nc23)CC1 | 0.181
C/C(=N/NC(=O)CNC(=O)c1ccccn1)c1cccc([N+](=O)[O-])c1 | 9.86
O=C(NC(=S)Nc1cccnc1)c1cccs1 | 2.64
COc1ccccc1OCc1nc(C#N)c(N2CCCC2)o1 | 8.7
CC(=O)Nc1ccc(NC(=O)C2CCC(CNS(=O)(=O)c3cccc4nsnc34)CC2)cc1 (stereo not drawn) | 3.69
O=S(=O)(c1ccc(Cl)cc1)N1CCC(n2cnc3cc(C(F)(F)F)ccc32)CC1 | -31.2
O=S(=O)(NCC(Nc1ccccc1)c1ccccc1)c1ccc(Cl)cc1 (stereo not drawn) | -1.6
Cc1c2cnn(CC(=O)NCCCN3CC(C)CC(C)C3)c(=O)c2c(C)n1Cc1ccccc1Cl (stereo not drawn) | -12.6
Cc1ccc(S(=O)(=O)Nc2cc(-c3ccc(Cl)cc3)nn2C)cc1 | 5.74
O=C(NCC(=O)N(c1ccccc1)C(C(=O)NCC1CCCO1)c1ccccc1)c1ccco1 (stereo not drawn) | 13.9
CCC(=O)Nc1nc2ccccc2n1Cc1ccccc1C | 6.61
CCC(=O)Nc1c2c(nn1-c1ccc(OC)cc1)CSC2 | 6.51
Cc1ccnc(NS(=O)(=O)c2ccc(NC(=O)c3ccc(Br)o3)cc2)n1 | 4.22
CN1CCN(C(=O)CCNC(=O)Cn2ccc3ccccc3c2=O)CC1 | 21.2
CCCCn1c(O)c(C(CC)=NCc2cc(OC)cc(OC)c2)c(=O)[nH]c1=O | 4.79
Cc1ccc(CNC(=O)C2CCCN(c3nn4c(=O)cc(C)nc4s3)C2)cc1 (stereo not drawn) | -0.47
CCOC(=O)C1CCN(CC(O)COCc2ccccc2)CC1.O=C(O)C(=O)O (stereo not drawn) | 3.28
CC(C)(C)C(=O)CC1(O)C(=O)N(Cc2ccc(Cl)cc2)c2ccccc21 (stereo not drawn) | 13.3

SMILES | hERG current change (%, negative = inhibition) at 1uM [%]
CC(C(=O)Nc1ccccc1C(=O)N1CCOCC1)N(c1ccc(Cl)cc1)S(C)(=O)=O (stereo not drawn) | 15.7
Cc1cccc(NC(=O)C2CC(=O)n3ncnc3N2)c1 (stereo not drawn) | 10.4
O=C(CSc1nncn1-c1ccccc1)NCc1cccs1 | 14.7
CCC1(CC)C(=O)NC(=O)NC1=Nc1ccccc1 | 13.3
CCOC(=O)/C(C#N)=C/c1ccc(OC(=O)c2ccccn2)cc1 | -0.898
Nc1nc(NCc2ccccc2)nc(-c2ccccc2)n1 | 7.82
S=C1NC(C23CC4CC(CC(C4)C2)C3)=CC(c2ccc3c(c2)OCO3)N1 (stereo not drawn) | 6.57
CC(C)CN(C(=O)COC(=O)CNC(=O)c1ccccc1F)c1c(N)n(Cc2ccccc2)c(=O)[nH]c1=O | -5.54
COc1ccc2nc3oc(C(=O)N4CCC5(CC4)OCCO5)cc3cc2c1 | 4.64
CC(C)CNS(=O)(=O)c1ccc(CCC(=O)Nc2cc(Cl)ccc2Oc2ccccc2)cc1 | 7.85
COc1cccc(CN2CCNC(=O)C2CC(=O)NCCn2ccc3ccccc32)c1OC (stereo not drawn) | 12.2
Cl.O[C@@H](c1cc(C(F)(F)F)nc2c(C(F)(F)F)cccc12)[C@H]1CCCCN1 | 13.2
CCc1cc(-c2onc(C)c2-c2cscn2)c(O)cc1OC | 4.67
COc1ccc(C2=CC3=C(Br)C(=O)C(C)(OC(=O)c4ccco4)C(=O)C3=CO2)cc1 (stereo not drawn) | 12.7
CCc1noc(C)c1C(=O)Nc1nc(-c2cc(OC)ccc2OC)cs1 | 2.76
Cc1ccc(C(=O)NCCSC(C)(C)C)cc1[N+](=O)[O-] | -4.25
COc1ccccc1N1CCN(Cc2ccc(F)cc2)CC1 | 6.42
COC(=O)[C@H](CC(C)C)NC(=O)N1CCCCC1 | 11.8
CC(C)Cn1cc(C(=O)N2CCC3(CC2)OCCO3)c2c3ccccc3n(C)c2c1=O | -1.15
COCCN(Cc1cn(C)nc1-c1ccc(Oc2ccccc2)cc1)C(C)C | -6.04
C=CCn1c2ccccc2n2nc(C)c(=O)nc12 | 6.25
CN(C)S(=O)(=O)c1cccc(NC(=O)COC(=O)CCOc2ccccc2)c1 | 9.82
CCOC(=O)c1c(S(=O)(=O)NCC(=O)Nc2cccc(C)n2)c(C)n(C)c1C | 20.6

SMILES | hERG current change (%, negative = inhibition) at 1uM [%]
Cc1ccc(-c2nc(C(=O)O)cs2)cc1 | 12.3
CN1CCC(=NNC(=O)C(=O)NC2CCCC2)CC1 | 5.03
COc1cc(C(=O)c2ccccc2)c(OC)cc1C(=O)Nc1ccc(O)cc1 | 10.3
O=C1c2ccccc2NC(c2cccc(F)c2)N1Cc1ccco1 (stereo not drawn) | -0.722
CCC(c1nnc(SCC(=O)Nc2ccc(C(N)=O)cc2)n1Cc1ccccc1)N(C)C (stereo not drawn) | 13
OCCNc1nc(-c2ccccc2)c2cc(Br)ccc2n1 | 7.28
Cc1csc(SCC(=O)N2CCN(S(=O)(=O)c3ccccc3)CC2)n1 | 11
CN(C)c1c(F)cc(C(=O)NCc2ccccc2)cc1F | 8.34
COc1ccccc1/C=C/CN1CCCCC1 | 11
CC(C)CCN1NC2(CCCC(C)C2)NC1=S (stereo not drawn) | 14.6
CC(CNC(=O)CCC(=O)N1CCOc2ccc(Cl)cc21)c1ccccc1 (stereo not drawn) | 2.8
CCC(=O)N(c1ccc(C(=O)O)cc1)c1nc(-c2ccc(OC)cc2)c(C)s1 | 6.17
Cc1ccc(CCC(=O)Nc2ccc(CC(=O)O)cc2)o1 | 13.4
NNC(=O)c1cc(Cl)ccc1Cl | 15.5
CCOc1ccc(-n2c(=O)c3sccc3n(Cc3ccc(C)cc3)c2=O)cc1 | 8.82
COc1ccc(OC)c(C(c2nnnn2C(C)(C)C)N2CCc3ccccc3C2)c1.Cl (stereo not drawn) | 6.42
CCC(C)(C)n1nnnc1C(c1cccs1)N1CCN(Cc2ccccc2)CC1 (stereo not drawn) | 2.67
Cc1ccc(S(=O)(=O)NC(CC(N)=O)C(=O)O)cc1 (stereo not drawn) | 7.9
CCOC(=O)c1oc2ccccc2c1NC(=O)c1ccc2c(c1)OCO2 | 6.17
CC(C)(Sc1ccc(CCN(CCCCC2CCCCC2)C(=O)NC2CCCCC2)cc1)C(=O)O | 11.4
CN(C)/C=N/c1sccc1C(N)=O | 6.32
